Results as given in article PMC12136788.
The other results are listed elsewhere or left out.

T1: UNK ZnF1-3 (human, UniProt Q9C0B0 31-174)
T1 sequence: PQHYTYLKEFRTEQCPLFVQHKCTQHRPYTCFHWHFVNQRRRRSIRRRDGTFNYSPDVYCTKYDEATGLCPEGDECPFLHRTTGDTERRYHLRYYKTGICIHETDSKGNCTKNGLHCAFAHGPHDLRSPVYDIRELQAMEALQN

B1: chr11:4127340:4127341:+_ENSG00000167325_ENST00000300738|hu_mus|hu_hu_hu_mus_False|58_68 (ssRNA)
RNA: GGGAGUUCUACAGUCCGACGAUCGGCAUAGUCAGGGUGCUUCGUGGUCAAGGUCGCGGCUGUCUCAGCAGCCAAAGUAUCUAGUUCCACUGUGGUGACCCCACUAUAUAGGCCUUGGAUUACUUUCAUGGUGAUCUGAGCAGGCAACAGAGGAUUGAGCAUCA
B2: chr14:66974463:66974464:+_ENSMUSG00000022044_ENSMUST00000074523|mus_hu|mus_mus_mus_hu_False|18_38 (ssRNA)
RNA: GGGAGUUCUACAGUCCGACGAUCUUGUAGGACGACUUAUUCAGGGGAUCGGCCAGGAAGCAGGAGCAGAACAAGGACACCAGCGGGAGCUCCUUCAUCUUCUCCUUGUAGGCAGCAAGAGUCAUGUUUCUGGGAUCUGGUGGCCAACAGAGGAUUGAGCAUCA
B3: chr4:25749455:25749456:-_ENSG00000091490_ENST00000264868|hu_hu|hu_hu_hu_mus_False|1_38 (ssRNA)
RNA: GGGAGUUCUACAGUCCGACGAUCGCACUAUGACCUCUAGAAAAAUCCACAGGGGGAAAAAAUGUAAACCAAUGUACAAUGUUAUCGCCUUCCCUGUAUUUCCAGGCUUUGUCUCAAGGCUCCUUCUAGCUGCUGGACUGCUAGCAACAGAGGAUUGAGCAUCA
B4: chr6:15520614:15520615:+_ENSG00000008083_ENST00000341776|hu_hu|FALSE|FALSE (ssRNA)
RNA: GGGAGUUCUACAGUCCGACGAUCUUUUCUAAGUACAAAAAAAAGUUCAACAGUUUAAUGCUAAAACAAAAUUAGUUCUCUAAAACCAGAAGAAAAUCUUCUUUAGAGCUAGUGCAAAGACAGCUUGAAUCCUACAGCAAGUACCAACAGAGGAUUGAGCAUCA
B5: chr2:42509997:42509998:+_ENSG00000143924_ENST00000318522|hu_mus|hu_hu_hu_mus_True|58_58 (ssRNA)
RNA: GGGAGUUCUACAGUCCGACGAUCUCGCUGAGUCCUCUCCUCAUAAUUAAACAGGACUACCACUGAGGCGAUAAAAUAAACUAUUUUCCCUGUGGGAAGCAGGUAUACAUUCGCUCUACAGUCCUUUCCUCGAUAACCGUAUACCAACAGAGGAUUGAGCAUCA
B6: 34922018_34922138_569_3pUTR_ENSG00000159140_ENST00000381679|human|control|control (ssRNA)
RNA: GGGAGUUCUACAGUCCGACGAUCUGUGUGGCUCUGAUACCUCCAUUGAUACUACAGGAGGUUCUAGCACAACUGCAGGGGAUUCAUUGGUCUCAGAUGGGCCAAAUGCUCUUGUAGGAAGCUCCAGCGCCACAGCUGAAGGUUCAACAGAGGAUUGAGCAUCA
B7: chr1:220276048:220276049:+_ENSG00000067704_ENST00000302637|hu_hu|hu_hu_hu_mus_True|28_78 (ssRNA)
RNA: GGGAGUUCUACAGUCCGACGAUCGCAAAUUGCCUGGUUGGCGGGAAUUGUCCAAGGUUGUGUGGUCCAAACUAAAACGCUAACAGGGGAUGAGGCAUCUGUAAGAGAUGCCAAUUUCGGAGGAGGUCUCAGGAGGGGGAAUCUCAACAGAGGAUUGAGCAUCA
B8: 149136987_149137107_160_5pUTR_ENSMUSG00000068250_ENSMUST00000095319|mouse|control|control (ssRNA)
RNA: GGGAGUUCUACAGUCCGACGAUCGCCCACCUGAGACAGGCCAUCGGGUGGAGCCGCCAGCCCCACGGUGCACCACAGUCCUCAGAGACCAGACACAAAGCCGGGACAAGGACUAGGAGCCAGCAGGACGUGAGGGAAGGGACUCAACAGAGGAUUGAGCAUCA
B9: 34756928_34757048_3359_CDS_ENSMUSG00000039967_ENSMUST00000047950|mouse|control|control (ssRNA)
RNA: GGGAGUUCUACAGUCCGACGAUCACCUUUUUUCGUCUUGCGCUGCAGUUUAAAAGCAGCAUAUUGGUCAGGGUGUGCUGUCUUCAUGUGUUUUCCAAUACUCUGUGAAGAGUUAUAUGUUCGAGUGCAUCCCUCAACCUGGCACAACAGAGGAUUGAGCAUCA
B10: chr12:48362563:48362564:+_ENSG00000134291_ENST00000256686|hu_hu|hu_hu_hu_mus_False|28_78 (ssRNA)
RNA: GGGAGUUCUACAGUCCGACGAUCUCCGUCAAGCCCUUCGAUAGACCCUUGCGGGGGUGGUAAAAACCACUUUGUAUGGGGAAGGAAAAGAAACGCCAAAAACUUUCUUUCUUUCUUGGGUGGGGUGAGGCGGGAGGGGGAGGUCAACAGAGGAUUGAGCAUCA
B11: chr14:53325200:53325201:-_ENSG00000073712_ENST00000341590|hu_hu|FALSE|FALSE (ssRNA)
RNA: GGGAGUUCUACAGUCCGACGAUCGUUUUGGUCUUUUGCACGUGUUGAGAGAAAUAUGUAGCCACCAAUGAAUUCAUGAACCACUUUGCAAUCUACUUCAGUACAAAUGAAGGACAAUCGUACUUCAUCUGCAAACUCUACGGUCAACAGAGGAUUGAGCAUCA
B12: 105182201_105182321_1586_CDS_ENSMUSG00000031673_ENSMUST00000075190|mouse|control|control (ssRNA)
RNA: GGGAGUUCUACAGUCCGACGAUCAGGCUCAUCGGCAUCUUCUACUGAAAUCUUGACGGUCACAGUGUCCUUGAAAGGUCCAUUGCUGAUGAACUUCGGAUCAAUGUGAACAUUGGCGGCCUCUAUCUUCAAGCUAUAAGCUCUCAACAGAGGAUUGAGCAUCA
B13: chr16:70413849:70413850:-_ENSG00000157350_ENST00000342907|hu_hu|FALSE|FALSE (ssRNA)
RNA: GGGAGUUCUACAGUCCGACGAUCGGCCUCCCAAAGUGCUGGGAUGACAGGUGUGAGCCACCGUACCUGGCGGGAUUCAUGAUUUAAAGCAAAAGAAAAAAAAGAAAUAAAUUAUUCUGCUCAAUACUGUUUGGCAUAAUUGCACAACAGAGGAUUGAGCAUCA
B14: chr9:110092072:110092073:+_ENSG00000119318_ENST00000416373|hu_hu|FALSE|FALSE (ssRNA)
RNA: GGGAGUUCUACAGUCCGACGAUCCUGUAUUUAUCCCUGCCCUGUAUCCUAGAUCCCUCCCUCCCCACCCCCAACAAUCUACUACCUUAUACCAAGUAUUGUGGAUAUGAGCCCAAGUCAUCCCAGACAAUCCAGUGAACAAGUCAACAGAGGAUUGAGCAUCA
B15: chr12:29513650:29513651:+_ENSMUSG00000036613_ENSMUST00000035657|mus_mus|motif|central (ssRNA)
RNA: GGGAGUUCUACAGUCCGACGAUCCUCCAGGGUCUGAGCAGUGCUUGCAGGGUCGUCAGGGGACUCGUGGCUACCGGAUUCGGAUUCCUUGGGCAUCCUCCACACAGCUGCACACGCCUGGACUCGACUGUCUGUAGUUUUGUUCAACAGAGGAUUGAGCAUCA
B16: chr2:69673326:69673327:+_ENSMUSG00000042155_ENSMUST00000053087|mus_mus|FALSE|FALSE (ssRNA)
RNA: GGGAGUUCUACAGUCCGACGAUCUUUUCCGUCAGAAGUAGUUUUUAUUUAAAGUAAAAAUUAAGUAUUCUCUCUUUAAAAACAAAACAAUAAAACCAACCUGGCGUGGAGCAGACAGUCUCACGUUUAGAUGAGUGACUUGAGCAACAGAGGAUUGAGCAUCA
B17: 44165391_44171860_221_3pUTR_ENSMUSG00000035696_ENSMUST00000045793|mouse|control|control (ssRNA)
RNA: GGGAGUUCUACAGUCCGACGAUCGGCGCUGUCUCUUAGGACUUGGACUAUCUUCACUCUGGAAGAAAGCUUUGAAGUGAGCAUCCUCUUGAAUGGUAGUGUUCUGAUCACUUGGGAGAAGAGGGAACAGGCUCUGAAGUCUCACAACAGAGGAUUGAGCAUCA
B18: chr4:6882955:6882956:+_ENSG00000170871_ENST00000425103|hu_hu|FALSE|FALSE (ssRNA)
RNA: GGGAGUUCUACAGUCCGACGAUCACCGCAGUCGGAAGGAAAAUUAACUGCAGUUAAGAUGCAAAAAGCAGUGAUACUUCUAAGACAAGCACAUGCACACCCAUUCUUGAUUUGACAACACAAUCUAGUCUAUUUCAAAUAGCCCAACAGAGGAUUGAGCAUCA
B19: chr19:3980662:3980663:-_ENSG00000167658_ENST00000309311|hu_hu|FALSE|FALSE (ssRNA)
RNA: GGGAGUUCUACAGUCCGACGAUCGAAGACUCGUCCAAAGGCGUAGAACCGACCUUUGUCGGAGGUUGGCACCAUUUUGGAAAUAUACAUCAUAAGAGGGCCUUUGGGGUCACAGCUUUUAAUGCCCAUGGCAGCCUCGUCGUCCAACAGAGGAUUGAGCAUCA
B20: chr2:179515052:179515053:+_ENSMUSG00000000305_ENSMUST00000000314|mus_hu|mus_mus_mus_hu_False|18_78 (ssRNA)
RNA: GGGAGUUCUACAGUCCGACGAUCGCUGUCCCAUGCAGUCACCGUGAACGCCACCUGCUCUGAGGGGACCUGCAGCUCCCGGGUGGCGAAGACUGUCCCAUCUGCCCCAACUUUGAAGUCCAAGCUGUUGGUCUCAUAUUGUGUCAACAGAGGAUUGAGCAUCA
B21: chr4:25749455:25749456:-_ENSG00000091490_ENST00000264868|hu_hu|hu_hu_hu_mus_False|8_88 (ssRNA)
RNA: GGGAGUUCUACAGUCCGACGAUCGCACUAUGACCUCUAGAAAAAUCAUUCAAGGAGAAAAAUGUAAACCAAUGUACAAUGUUAUCGCCUUCCCUGUGUGUGGAGUGUUUGUCUCAAGGCUCCUUCUUGCCUUAUAAUUUGGGACAACAGAGGAUUGAGCAUCA
B22: chr5:93602159:93602160:+_ENSMUSG00000058013_ENSMUST00000074733|mus_hu|FALSE|FALSE (ssRNA)
RNA: GGGAGUUCUACAGUCCGACGAUCUAUGCUCAUUUUAAAAAAAUUUUAGUGAUGCAAGAGACAAUUUAAAAGUGUACUUUCUGUACAAGCCACAAAAAUGCUCACACAAGCGGUGGUUGGAACAAGCAUACAACACAAAUAUUCCAACAGAGGAUUGAGCAUCA

The binders below were run against T1, UNK ZnF1-3 (assay: nsRBNS (natural sequence RNA bind-n-seq); RBNS binding buffer (assumed for nsRBNS): 25 mM Tris pH 7.5, 150 mM KCl, 3 mM MgCl2, 0.01% Triton X-100, 500 ug/ml BSA, 20 U/ml SUPERase-In, 4 C; UNK is unkempt and MSI1 is Musashi-1; names of the RNAs are library labels; protein concentration not given here; high values mean tight binding).

Binder	binding signal [enrichment R]
B1	0.957
B2	1.9
B3	1.23
B4	1.03
B5	1.75
B6	0.683
B7	1.99
B8	1.19
B9	0.561
B10	1.39
B11	1.01
B12	1.03
B13	2.69
B14	0.723
B15	0.831
B16	0.986
B17	1.32
B18	1.28
B19	1.69
B20	0.722
B21	1.05
B22	0.806
